Results from article PMC7560015, “Indoline-6-Sulfonamide Inhibitors of the Bacterial Enzyme DapE” (Antibiotics, 2020).
Read-outs that look alike come from different tables or passages of the source. Entries with a single value are a further part of the results.

Row | SMILES | melting point (melting range) | melting point (softens)
1 | CC(=O)N1CCc2cc(Cl)c(S(=O)(=O)NCCC(C)C)cc21 [10a, 1-Acetyl-5-Chloro-N-Isopentylindoline-6-Sulfonamide] | 179.1 to 180.4 °C | 174 °C
2 | CC(=O)N1CCc2cc(Br)c(S(=O)(=O)NC(C)(C)C)cc21 [9d, 1-Acetyl-5-Bromo-N-(Tert-Butyl)Indoline-6-Sulfonamide] | 235.7 to 236.1 °C | 224.4 °C
3 | CC(=O)N1CCc2cc(Br)c(S(=O)(=O)NCC(C)C)cc21 [9a, 1-Acetyl-5-Bromo-N-Isobutylindoline-6-Sulfonamide] | 225.4 to 226.1 °C | 215 °C
